Assay results taken from the supplement of paper PMC3334620.
Whole data set: some 33,000 sequences, median “E-score (-0.5 to 0.5)” near -0.021, cut for the highest 2% near 0.32. The list shows a part of the results.

Biological target: T1, Zap1 (UniProt P47043)
T1 sequence: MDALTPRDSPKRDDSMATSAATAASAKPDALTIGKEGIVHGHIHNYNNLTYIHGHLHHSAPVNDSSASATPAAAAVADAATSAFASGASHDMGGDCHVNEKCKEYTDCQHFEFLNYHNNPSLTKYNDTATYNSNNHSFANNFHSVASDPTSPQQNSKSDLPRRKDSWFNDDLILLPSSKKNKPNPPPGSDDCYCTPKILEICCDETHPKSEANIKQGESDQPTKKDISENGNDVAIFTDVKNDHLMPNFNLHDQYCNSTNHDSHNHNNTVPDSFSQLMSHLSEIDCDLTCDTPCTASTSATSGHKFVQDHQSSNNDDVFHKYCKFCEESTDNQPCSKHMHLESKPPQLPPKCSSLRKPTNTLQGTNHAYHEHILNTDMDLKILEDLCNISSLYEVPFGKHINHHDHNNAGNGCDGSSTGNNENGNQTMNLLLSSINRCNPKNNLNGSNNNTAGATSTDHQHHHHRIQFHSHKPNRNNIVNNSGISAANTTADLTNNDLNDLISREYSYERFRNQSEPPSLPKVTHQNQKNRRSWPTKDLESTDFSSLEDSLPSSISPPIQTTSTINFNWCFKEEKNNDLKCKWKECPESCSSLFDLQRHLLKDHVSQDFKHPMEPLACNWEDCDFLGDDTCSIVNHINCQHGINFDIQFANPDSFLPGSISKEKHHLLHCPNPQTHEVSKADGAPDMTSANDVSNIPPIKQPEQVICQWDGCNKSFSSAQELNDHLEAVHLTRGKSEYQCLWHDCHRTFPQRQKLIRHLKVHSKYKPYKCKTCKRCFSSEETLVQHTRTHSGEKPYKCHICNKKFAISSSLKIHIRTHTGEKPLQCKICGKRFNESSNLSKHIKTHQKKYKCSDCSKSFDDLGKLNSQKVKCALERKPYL
Assay: PBM E-score (8-mer binding enrichment) (E-score (-0.5 to 0.5)); higher = stronger / more preferred TF binding; most listed sequences are background and not binding sites
Details: protein concentration: 200 nM; construct: GST-full length
Outline: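 Yeast transcription factors, full-length or as DNA-binding domains, were expressed with a GST tag using PURExpress in vitro transcription/translation. At about 100-200 nM they were applied to universal all-10-mer Agilent arrays, double-stranded by primer extension on fresh or once-stripped slides. Fluorescent anti-GST detected bound protein, and masliner normalised the scans. E-scores for ungapped eight-base words, pooled with reverse complements, came from the Universal PBM Analysis Suite.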

Sequence | PBM E-score
GCGGCTGA | -0.101
TCCGCAAA | 0.0428
AACGTCCA | -0.143
AAGATCTA | -0.16
GGGAAGGA | -0.263
CGGCGGTA | 0.143
GTTATAGA | 0.175
AAAAAATG | 0.17
CCAACGGC | -0.24
ATCTAACA | -0.0218
ATGGAGCG | -0.202
TAGTTCAA | 0.0304
CCTATACG | -0.0975
AGTGGTCG | 0.0644
GGAGTCCC | -0.0364
AACTCACG | 0.0299
TAGTGAGA | -0.145
GGCAGGAA | -0.185
GTACGGTA | 0.246
ACCAAGAC | 0.0309
ATCCGAAA | 0.102
TAGCCTAA | -0.0154
ACTGGTGC | -0.0153
GAGGCGGC | 0.0176
GTAGGGAC | -0.0704

Sequence | PBM E-score
CATATGAG | 0.0929
CGCTGAAA | 0.0756
AGCTATAT | -0.211
GGGCGAGA | -0.219
GCCTCCTA | -0.28
TCAATTCA | -0.0395
CCCTTCCC | 0.163
CTCTTCGA | -0.00709
CCGCGAGG | 0.223
AGCGGACG | -0.084
AGTCTCCC | -0.332
GCTGGACA | -0.27
TGGGACCA | -0.0424
AGAGCCAA | -0.0107
AAAAAACC | 0.251
CTAAGACC | 0.134
CTCCATAA | -0.0524
AAGTGCCG | -0.0393
CAGGAAGC | 0.0803
GCGTGCAA | -0.107
AAGCTGGG | -0.232
AAAACCGG | 0.272
AGTGCCAC | -0.123
AGATGTCC | -0.0648
GAGTAAAA | -0.0343

Sequence | PBM E-score
ACTAAATG | -0.036
GCCCACGA | -0.113
AATACCCG | 0.177
ATCTTCGA | 0.00964
CTGGCAAA | 0.0558
GTGCGATA | -0.0457
ACTATGTA | -0.153
ATGACTTG | -0.111
CTGAACTC | -0.111
TCCTCCAA | -0.0474
GAGTGTGC | -0.142
ATGACTGC | -0.127
ACTCCAAT | 0.00611
GCGTGAAA | 0.0792
GAGAATGC | -0.181
TCAATAGA | -0.0863
ACAACGCC | -0.00641
CCCCAAGC | 0.0513
CGGCCGAG | 0.00749
CCTAGGGA | -0.0988
GAGCGCCC | -0.171
CACAATTC | 0.024
TACATAAA | 0.112
AGCGAGTC | -0.193
AGTGCAAG | -0.0595

Sequence | PBM E-score
ATGGCCTC | 0.142
AACCGAGC | -0.0403
AACGCCGC | -0.0363
GTAGTAAC | 0.127
CCCTATAG | 0.271
CGTTTACC | 0.00669
GATCCAAC | 0.013
CTGAGCAG | 0.0476
CTTACAAC | 0.097
CAGTAGAA | 0.0546
AACTTCCT | 0.0316
CGGGTGAC | 0.167
GCGACGCC | -0.162
GCCGTCAC | 0.0781
AGAATATG | 0.0927
CTATTCTA | 0.119
CACAAGGA | 0.168
AATTGCGG | 0.0477
ATAAAGCC | -0.202
GTTCGAGA | -0.0717
ACTGGGGG | -0.305
CTTCATCA | 0.088
CGATAGGC | -0.213
GGAGGAAA | -0.116
GTGCTGCA | -0.0788

Sequence | PBM E-score
GCGTGCGA | -0.0265
GCTGACGA | -0.0337
CGTGAAAA | 0.0967
CCCGGAGA | 0.0528
ATCAGGGC | -0.249
CAAGAATG | -0.0459
GATAACAC | -0.00284
AGGTATCC | 0.248
ACATACAC | 0.0555
ATGGTGAC | 0.0548
AGGGACTA | -0.104
CAGAACTC | -0.0409
AATGATGG | -0.00312
AATTCCCG | -0.00639
ACCTCGCC | -0.0469
AAAACTGG | 0.0376
ACAGCACT | -0.0476
CGAAGCAC | -0.152
TATACATA | 0.106
CGGGACAC | -0.105
CAATGTTA | -0.0616
CGTCGTTA | -0.0653
AACTAATT | 0.181
GCTTTCTA | 0.112
CACACAAG | 0.186

Sequence | PBM E-score
GGCGACCA | -0.0685
GTAGAACA | -0.135
GGCTGTTA | 0.0308
ACAGCATG | -0.0779
AATAGCCT | -0.161
AGGATATA | 0.0935
GCTTTAGA | -0.115
CCAGTGTA | -0.00071
TAAGCTTA | 0.0634
TTCAAAAA | 0.255
CAAGCAAA | -0.0135
CCATCTGA | -0.0622
CACACATC | -0.272
GTCGGACA | -0.0115
TGGAGACA | -0.181
TCAGTTAA | 0.097
ACTGCATG | -0.125
ACGACTTC | -0.206
GGCGTACA | -0.216
ATATTCAC | -0.0786
CCACGTCC | -0.145
CACTTATC | -0.00335
CAATTTAA | 0.0336
ACTGGTAG | -0.00416
CTGGGCAA | -0.11

Sequence | PBM E-score
CAAGGGGC | 0.0367
AAGACGCG | -0.0611
ACACAATG | 0.102
ACATCCGA | -0.142
TAATGACA | 0.0154
CCGCTACG | -0.128
CGGTTCTC | -0.0391
ACCTGTTG | 0.265
GAGGCACC | -0.1
CGTGTTGC | -0.0452
CGATCGCG | -0.00514
AGTAACTG | -0.154
ACGGACAA | 0.068
AGCAAACT | 0.0479
AAAATAGC | -0.213
ACTTTTTC | -0.0761
CAGCCTCA | -0.0372
GCTCCTCC | -0.207
CACCGCAA | 0.304
AGACAAAA | -0.00478
ATGCTGGA | -0.0866
GCAGCGGA | -0.181
